Test results taken from PubChem BioAssay (NCI).
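Growth conditions: 96-well plates. Treatment: test compound, 48 hours, 5 concentrations. Analysis: linear interpolation between bracketing concentrations; unreached endpoints set to highest concentration. The concentration for full growth arrest is given as TGI.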

Tests used:
Test in all cases: DTP human tumour cell line panel, 48 h
[1] = tested on: 786-0 renal
[2] = tested on: A498 renal
[3] = tested on: A549 NSCLC
[4] = tested on: ACHN renal
[5] = tested on: BT-549 breast
[6] = tested on: CAKI-1 renal
[7] = tested on: CCRF-CEM leukemia
[8] = tested on: COLO 205 colon
[9] = tested on: DLD-1 colon
[10] = tested on: DMS 273 small cell lung
[11] = tested on: DU-145 prostate
[12] = tested on: EKVX NSCLC
[13] = tested on: HCC-2998 colon
[14] = tested on: HCT-116 colon
[15] = tested on: HCT-15 colon
[16] = tested on: HL-60(TB) leukemia
[17] = tested on: HOP-18 NSCLC
[18] = tested on: HOP-62 NSCLC
[19] = tested on: HS 578T breast
[20] = tested on: HT29 colon
[21] = tested on: IGROV1 ovarian
[22] = tested on: K-562 leukemia
[23] = tested on: KM12 colon
[24] = tested on: KM20L2 colon
[25] = tested on: LOX IMVI melanoma
[26] = tested on: LXFL 529 NSCLC
[27] = tested on: M14 melanoma
[28] = tested on: M19-MEL melanoma
[29] = tested on: MALME-3M melanoma
[30] = tested on: MCF7 breast
[31] = tested on: MDA-MB-231 breast
[32] = tested on: MDA-MB-435
[33] = tested on: MOLT-4 leukemia
[34] = tested on: NCI-H226 lung
[35] = tested on: NCI-H23 lung
[36] = tested on: NCI-H460 lung
[37] = tested on: NCI-H522 lung
[38] = tested on: NCI/ADR-RES ovarian
[39] = tested on: OVCAR-4 ovarian
[40] = tested on: OVCAR-8 ovarian
[41] = tested on: PC-3 prostate
[42] = tested on: RPMI-8226 leukemia
[43] = tested on: RXF 393 renal
[44] = tested on: RXF-631 renal
[45] = tested on: SF-268 CNS
[46] = tested on: SF-295 CNS
[47] = tested on: SF-539 CNS
[48] = tested on: SK-MEL-2 melanoma
[49] = tested on: SK-MEL-28 melanoma
[50] = tested on: SN12C renal
[51] = tested on: SNB-19 CNS
[52] = tested on: SNB-75 CNS
[53] = tested on: SNB-78 CNS
[54] = tested on: SR leukemia
[55] = tested on: SW-620 colon
[56] = tested on: T-47D breast
[57] = tested on: TK-10 renal
[58] = tested on: U251 CNS
[59] = tested on: UACC-257 melanoma
[60] = tested on: UACC-62 melanoma
[61] = tested on: UO-31 renal
[62] = tested on: XF 498 CNS

Molecule `COc1cc2c(c(OC)c1OC)-c1ccc(SC)c(=O)cc1[C@@H](NC(C)=O)CC2` has a TGI [1] greater than 100 µM, a TGI [2] of 3.33 µM and a TGI [3] of 88.6 µM. The TGI [4] was greater than 100 µM, the TGI [5] was greater than 100 µM and the TGI [6] was greater than 100 µM. For the same molecule, the TGI [7] was 15.8 µM, the TGI [8] was less than 10 nM and the TGI [9] was greater than 100 µM. The TGI [10] was greater than 100 µM, the TGI [11] was 23.9 µM and the TGI [12] was greater than 100 µM. It also gave a TGI [13] of 72.9 µM, a TGI [14] of 9.24 µM and a TGI [15] greater than 100 µM. It also gave a TGI [16] of less than 10 nM, a TGI [17] greater than 100 µM and a TGI [18] greater than 100 µM. It also gave a TGI [19] greater than 100 µM, a TGI [20] of 4.8 µM and a TGI [21] of 21.5 µM. For the same molecule, the TGI [22] was greater than 100 µM, the TGI [23] was 215 nM and the TGI [24] was less than 10 nM. For the same molecule, the TGI [25] was greater than 100 µM, the TGI [26] was greater than 100 µM and the TGI [27] was 77.4 µM. The TGI [28] was greater than 100 µM, the TGI [29] was greater than 100 µM and the TGI [30] was greater than 100 µM. For the same molecule, the TGI [31] was 5.72 µM, the TGI [32] was less than 10 nM and the TGI [33] was 34.4 µM. The TGI [34] was 2510 nM, the TGI [35] was 470 nM and the TGI [36] was greater than 100 µM. It also gave a TGI [37] of less than 10 nM, a TGI [38] of less than 10 nM and a TGI [39] greater than 100 µM. It also gave a TGI [40] greater than 100 µM, a TGI [41] greater than 100 µM and a TGI [42] of 89.7 µM. For the same molecule, the TGI [43] was greater than 100 µM, the TGI [44] was 13.3 µM and the TGI [45] was greater than 100 µM. The TGI [46] was 398 nM, the TGI [47] was 46.4 nM and the TGI [48] was 15.8 µM. For the same molecule, the TGI [49] was greater than 100 µM, the TGI [50] was greater than 100 µM and the TGI [51] was greater than 100 µM. For the same molecule, the TGI [52] was 13.2 µM, the TGI [53] was greater than 100 µM and the TGI [54] was greater than 100 µM. For the same molecule, the TGI [55] was greater than 100 µM, the TGI [56] was greater than 100 µM and the TGI [57] was greater than 100 µM. For the same molecule, the TGI [58] was 15.8 µM, the TGI [59] was greater than 100 µM and the TGI [60] was greater than 100 µM. It also gave a TGI [61] greater than 100 µM and a TGI [62] of 95 µM.
